The values that follow come from patent publication US20250127918A1, “SITE-SELECTIVE CONJUGATION OF A PHARMACEUTICAL AGENT TO AN ANTIBODY USING AN AFFINITY PEPTIDE” (priority 2023, published 2025).

For one assay, the target named is Dupilumab (hIgG4). Put plainly: cell-based or functional assay.
Another assay concerns the target Mouse IgG1. Put plainly: cell-based or functional assay.

As to FNMQQQRRFYEALHDPNLNCEQRNAKIKSIRDD (modifications not checked) [PEL-21], in the assay with Dupilumab (hIgG4), the total conversion, second column (head printed as 'Light chain total conversion', read as heavy chain; Q-ToF LC-MS; 20 eq., room temperature) came to 96% and the total conversion, second column (head printed as 'Light chain total conversion', read as heavy chain; Q-ToF LC-MS; 20 eq., rt) is 96%. Besides, in the assay with Mouse IgG1, the total conversion, second column (head printed as 'Light chain total conversion', read as heavy chain; Q-ToF LC-MS; 20 eq., room temperature) was 69% and the total conversion, second column (head printed as 'Light chain total conversion', read as heavy chain; Q-ToF LC-MS; 20 eq., rt) worked out at 69%.
